Source: PubChem BioAssay AID1347071 (National Center for Advancing Translational Sciences (NCATS), 2019)
The campaign covered roughly 410,000 compounds. About 260 (0.063%) were called active. The inconclusive results got no clear call from the source; some entries with a clear call stand among them for comparison. The call rests on the fitted dose curve; in most records, active means well fitted activation curve with a large enough effect; inconclusive means small, poorly fitted or top-dose-only effect; inactive means no such curve, though single readings can be large or run the other way. No potency is given beside an inconclusive call; the fits are too rough.

Assay: qHTS for compounds that reverse cellular toxicity of Amyloid beta (A-beta) peptide in yeast: Primary Screen; further: nearly all actives have a fitted effect of over 55% in size
Conditions: yeast expressing A-beta42, growth rescue, OD600, 48 h; growth rescue: at 46.1 µM (top of the series), 0% DMSO, 100% iron-clioquinol control
Outline: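 Growth rescue measured by 600 nm absorbance after 48 h yeast culture at 30 C with compound. Values normalized between DMSO and an equimolar ferric chloride plus clioquinol control.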
Potency means the concentration at half of the fitted maximal effect; tags describe the fitted curve by direction and shape.

Structure (SMILES) | growth rescue | Potency
CSCC(=O)Nc1nc(-c2ccc3c(c2)OCCO3)cs1 | inactive: -30.8% | –
O=C(COc1ccccc1C(=O)O)Nc1ccc(SC(F)F)cc1 | – | inconclusive [activator, single point]
COCCCNC(=S)Nc1cc(C)c(C)cc1C | – | inconclusive [activator, partial curve, poor fit]
COCCCNC(=S)N/N=C/c1ccc2c(c1)OCO2 | – | inconclusive [activator, single point]
COc1ccc(NC(=S)NC2CC3CCC2C3)c(OC)c1 (stereo not drawn) | – | inconclusive [activator, single point]
Fc1ccc(CNC(=S)NC2CCCCC2)cc1 | – | inconclusive [activator, single point]
CC(C)=C[C@@H]1C[C@H](C)[C@H]2CC[C@H](C)c3c(O[C@@H]4O[C@@H](C)[C@@H](O)[C@@H](O)[C@@H]4O)c(O)c(C)c1c32 | – | inconclusive [activator, partial curve, poor fit]
CC(O)(c1ccc(F)c(F)c1)c1nc(-c2cccc(F)c2)cs1 (stereo not drawn) | – | inconclusive [activator, single point]
O=c1oc2cc(O)ccc2s1 | inactive: -23.2% | –
O=C(COc1ccc(Cl)cc1Cl)NC(=S)N1CCCc2ccccc21 | – | inconclusive [activator, full curve]
O=[N+]([O-])c1ccc(S(=O)(=O)Nc2ccncc2)cc1 | inactive: 7.89% | –
COc1ccc(C(=O)N2CCN(S(=O)(=O)c3ccc4c(c3)OCCO4)CC2)cc1OC | – | inconclusive [activator, single point]
S=C1SCN(Cc2cccs2)CN1Cc1cccs1 | inactive: -7.49% | –
O=Cc1ccc(-c2cccc([N+](=O)[O-])c2)o1 | inactive: -12.8% | –
CCc1cccc(CC)c1NC(=S)/C(=C(\[O-])c1ccc(Cl)s1)[n+]1ccccc1 | – | inconclusive [activator, partial curve, poor fit]
CC(C)(C)c1ccc(S(=O)(=O)N2CCN(CC(=O)NC(=O)NC3CCCCC3)CC2)cc1 | – | inconclusive [activator, single point]
Cc1ccc(Cl)cc1NC(=O)COC(=O)CC1CC2CCC1C2 (stereo not drawn) | – | inconclusive [activator, full curve, poor fit]
Cc1cccc(-n2c(C)c(-c3ccccc3)[nH]c2=S)c1 | – | inconclusive [activator, single point]
FC(F)Oc1ccccc1NC(=S)NCCc1ccccc1 | – | inconclusive [activator, single point]
C=CCNC(=S)NNC(=O)CC12CC3CC(CC(C3)C1)C2 | – | inconclusive [activator, partial curve, poor fit]
O=C(Oc1c(CN2CCOCC2)cc(Cl)c2cccnc12)c1ccc(F)cc1 | inactive: -27.7% | –
Cc1cc(C)cc(NS(=O)(=O)c2ccc3oc(=O)ccc3c2)c1 | inconclusive: -26% [activator] | –
NC(=O)c1ccccc1NS(=O)(=O)c1ccccc1 | inactive: 18.4% | –
COc1ccccc1CNc1ccc(-c2nc(-c3ccccn3)no2)cc1[N+](=O)[O-] | inactive: -16.6% | –

Structure (SMILES) | growth rescue | Potency
CCCCN(CC)CCCNC(=O)CC1Nc2ccccc2NC1=O (stereo not drawn) | – | inconclusive [activator, partial curve, poor fit]
O=C(CSc1nnc(-c2ccccn2)o1)Nc1ccccc1 | inactive: -4.11% | –
CCCCCC(=O)Nc1nc(C)c(-c2csc(Nc3cc(OC)ccc3OC)n2)s1 | inactive: -6.96% | –
CC(/C=N/n1c(-c2cc(C)[nH]n2)n[nH]c1=S)=C\c1ccccc1 | inactive: 8.32% | –
CC1=Nc2ccccc2/C1=C/c1sc(=N)n(-c2nccs2)c1O | inactive: -3.98% | –
O=[N+]([O-])c1ccc(CSc2nnc(Cc3ccccc3)o2)cc1 | inactive: 0.305% | –
O=C1NCCCC2c3c(cc(Br)c(O)c3Br)OC12N1CCOCC1 (stereo not drawn) | inactive: -3.84% | –
O=C(Nc1ccccc1Cl)OCc1cncs1 | – | inconclusive [activator, single point]
CC(=O)Nc1ccc(S(=O)(=O)N2CCCC3CCCCC32)cc1 (stereo not drawn) | – | inconclusive [activator, full curve, poor fit]
COc1ccc(CCNS(=O)(=O)c2cccc3cccnc23)cc1OC | – | inconclusive [activator, single point]
COc1ccc(NC(=O)Cn2c(=O)n(-c3cc(C)cc(C)c3)c(=O)c3oc4ccccc4c32)cc1OC | inactive: 1.97% | –
CC(C)(C)N1CC(C(=O)Nc2ccc(C(N)=O)cc2)CC1=O (stereo not drawn) | inactive: -5.72% | –
CCOC(=O)CN1C(=O)COc2ccc(C(C)(C)C)cc21 | – | inconclusive [activator, partial curve, poor fit]
CCn1ccc(C(=O)NC2=C(C#N)CCC2)n1 | inactive: -12.4% | –
CCCCOc1cccc(C(=O)Nc2ccccc2N2CCCC2)c1 | – | inconclusive [activator, single point]
O=C(CCc1c[nH]c2ccccc12)NCCOc1ccccc1 | – | inconclusive [activator, single point]
Cc1ccc(Cl)cc1NC(=S)NN | – | inconclusive [activator, single point]
CN(Cc1ccc(F)cc1)C(=O)c1cccc(S(=O)(=O)N2CCN(c3ccc(F)cc3)CC2)c1 | – | inconclusive [activator, partial curve, poor fit]
CCCCCCCCCCOC(=O)Cn1c(COc2ccccc2)[n+](C)c2ccccc21 | inactive: -75.5% | –
COc1ccc(-c2nc3n(c(=O)c2C#N)CCCS3)cc1 | – | inconclusive [activator, single point]
CN(C)S(=O)(=O)c1cccc(NC(=O)CN2C(=O)C3C4C=CC(C4)C3C2=O)c1 (stereo not drawn) | – | inconclusive [activator, single point]
COc1ccccc1NC(=O)CCC(=O)OCc1ccc(Br)cc1 | – | inconclusive [activator, single point]
Cc1cc(/C=C(\C#N)C(=O)NCc2ccccc2)cc(C)c1O | inactive: -4.99% | –
COc1ccc(OC)c(CNC(=O)c2ccc(N3Cc4ccccc4Oc4ncccc43)s2)c1 | inactive: -13.4% | –
